Data taken from ChEMBL document CHEMBL4888484, “Replenishing the malaria drug discovery pipeline: Screening and hit evaluation of the MMV Hit Generation Library 1 (HGL1) against asexual blood stage Plasmodium falciparum ,using a nano luciferase reporter read-out” (2022).
Among all 150,000 compounds or so, about 540 (0.36%) showed an effect of 50% or more. Some of the results follow.

Tested on: Plasmodium falciparum
Experiment: Primary screen in NF54 nanoGlo assay, in single point, at 2uM, 72h; a lower Z score goes with more inhibition
Assay type: functional, Erythrocyte
Settings: timepoint 72 hour

Row | Structure (SMILES) | % Inhibition | Z score
1 | CN(CC1CC1)C[C@H]1CCN(C(=O)C2(C(=O)O)CCCCCC2)C1 | -12% | 1.42
2 | Cc1cc(C)n2cc(CNc3ccc(Cl)cc3)nc2n1 | -2% | 0.32
3 | Cc1ccc(NC(=O)c2ccc3nc(C(C)C)oc3c2)cc1C | -9% | 0.79
4 | Nc1ccc(CC(=O)N2CCC(OCC3CCCC3)CC2)cc1 | -15% | 1.42
5 | Cc1cccc2[nH]cc(CCNC(=O)N3CCOCC3)c12 | 1% | -0.12
6 | CCn1nc(C)c(-c2cc(-c3cc(O)ccc3OC)c(C#N)c(N)n2)c1C | -5% | 0.88
7 | CCOc1ccc(Cl)cc1CN(C)C[C@]1(O)CCCNC1 | -10% | 1.49
8 | Cn1ccnc1-c1cc(NC(=O)C[C@H](n2cccn2)C(F)(F)F)n(C)n1 | -6% | 0.81
9 | CCOc1cc2c(cc1CNc1nc(-c3ccc(OC)cc3)c(C#N)c(=O)[nH]1)O[C@@H](C)C2 | 5% | -0.95
10 | O=S(=O)(Cc1ccc(Cl)cc1)N1CCC[C@H](Cc2nc(C3CC3)no2)C1 | 26% | -3.44
11 | C[C@H](NCC(C)(C)C(N)=O)c1ccc(Br)cc1Br | 6% | -0.9
12 | CCn1c(-c2c(C)nc3ccccn23)nnc1N1CCNC(=O)C1 | -10% | 1.51
13 | Cc1cccc(-n2ncnc2CN2CCCC2)n1 | 2% | -0.26
14 | COc1ccc(CNC(=O)c2ncn(C[C@H](O)c3ccc(OC)cc3)n2)cc1 | -10% | 1.11
15 | COc1ccc2nc(-c3ccccc3)c(CN3CCCCCC3)c(O)c2c1 | -6% | 0.73
16 | CCCn1nc(C)nc1-c1cc(-c2ccccc2)n[nH]1 | -13% | 2.48
17 | CC(C)Cc1nc(CN(C)C(=O)c2cc(C(C)C)on2)no1 | -4% | 0.62
18 | Oc1cc(-c2cccs2)cc2c1OCCN(Cc1cc3ccccc3[nH]1)C2 | -4% | 0.73
19 | Cc1cc(C(=O)N2CCCS2(=O)=O)c(C)n1-c1nccs1 | -10% | 1.42
20 | CCC=C(C)C(=O)N(C)Cc1ccncc1 | -11% | 1.15
21 | COC(=O)[C@H](CC(C)C)NC(=O)c1cc(Cn2nc(C)cc2C)[nH]n1 | -2% | 0.38

Row | Structure (SMILES) | % Inhibition | Z score
22 | Cc1ccc(CC(=O)Nc2nc(-c3c(F)cccc3F)n[nH]2)cn1 | -3% | 0.32
23 | Cc1nccn1C[C@H]1CCCN(C(=O)c2c[nH]c3c(F)cccc3c2=O)C1 | 6% | -1.18
24 | COc1ccc(CC[C@H](C)N2CCOc3ccc(CN(C)CCc4ccccn4)cc3C2)cc1 | -16% | 2.21
25 | Cc1nn(CC(N)=O)c(C)c1-c1ccc(OCc2ccccc2)nc1 | -3% | 0.4
26 | CC(C)OCc1cc(C(=O)N2CCOCC(F)(F)C2)ccc1F | -11% | 1.43
27 | CC(C)(C)c1ccccc1CNC(=O)C1CCC(O)CC1 (stereo not drawn) | -6% | 0.59
28 | Cc1ncoc1C(=O)N1CCC2(CC1)C[C@H](CO)N(C(=O)c1ccccc1)C2 | 12% | -1.47
29 | Cc1nc(-c2ccc(S(N)(=O)=O)cc2)n(C2Cc3ccccc3C2)n1 | -5% | 0.76
30 | C#CCN(C)S(=O)(=O)c1c(C)cccc1F | 12% | -2.35
31 | O=C(NCC1CCCCC1)[C@H]1CCCN(c2nccn3nc(-c4ccccc4Cl)cc23)C1 | -7% | 0.78
32 | COc1ccc(-c2nc(CCNC(=O)c3cccc(Cl)c3)n[nH]2)cc1 | -7% | 1.35
33 | CC(C)c1ccc(NC(=O)[C@H]2CCN(C)C(=O)C2)cc1F | -7% | 1.2
34 | CCNC(=O)N1CCN(c2ccc(-c3noc(-c4ccc(C#N)cc4F)n3)cc2)CC1 | -12% | 2.34
35 | COc1ccc(-c2cc(C(=O)N[C@H](C)c3nnc4ccccn34)[nH]n2)cc1OC | -10% | 1.28
36 | CC(C)N1CCN([C@H]2CCOC3(CCN(C(=O)Cc4ccccc4)CC3)C2)CC1 | 0% | -0.02
37 | Cc1ccccc1[C@@H](NC(=O)c1cc(CO)ccn1)c1ccncc1 | 3% | -0.41
38 | CCN(CC)S(=O)(=O)c1ccc(=O)n(CC(=O)N2CCc3[nH]c4ccc(F)cc4c3C2)c1 | -15% | 1.92
39 | O=C(Nc1cc(Cl)ccc1NC1CC1)c1cc[nH]n1 | -12% | 1.68
40 | CCOc1ccc(Br)cc1NC(=O)N[C@@H](C)CCO | 6% | -0.79
41 | O=C(NCc1ccccc1Cl)c1ccc(-c2noc(C3CCCC3)n2)cc1 | -15% | 1.52
42 | CCn1cc(CN(CCOC)CC2CCN(Cc3ccccc3F)CC2)cn1 | -8% | 1.55

Row | Structure (SMILES) | % Inhibition | Z score
43 | Cc1ccnc(NS(=O)(=O)N(C)C)c1 | -6% | 0.78
44 | CC1CCC2(CC1)OC[C@H](CNC(=O)N(C)CCc1cnccn1)O2 (stereo partly drawn) | -16% | 2
45 | CC(C)(C)n1ccc(NC(=O)Cc2csc(-c3ccoc3)n2)n1 | -7% | 0.95
46 | Cn1c(=O)c2cn(S(=O)(=O)c3cccc(Cl)c3)nc2n(C)c1=O | 5% | -0.65
47 | NC(=O)NCC(=O)NCc1cc(-c2ccccc2)n[nH]1 | -19% | 2.37
48 | c1ccc(CN2CC[C@H](c3nc4ccccc4s3)C2)cc1 | 30% | -3.37
49 | O=C(c1cnccn1)N1CC(N2C(=O)C3CC=CCC3C2=O)C1 (stereo not drawn) | -1% | 0.26
50 | COCC(=O)N1CCC[C@H](Oc2cncc(OC)n2)C1 | -6% | 1.08
51 | N[C@@H]1COc2cccc(-c3cnn(C(F)(F)F)c3)c2C1 | -12% | 2.18
52 | COc1ccccc1N1CCN(C(=O)C[C@H]2C(=O)NCCN2C(C)C)CC1 | -5% | 0.86
53 | c1ccc(-c2cc(-c3cccnc3)nc3ccc4ccccc4c23)cc1 | 4% | -0.79
54 | Cc1nc2ccc(NCC(=O)NC3(C#N)CCCC3)cc2s1 | 0% | -0.01
55 | Cc1cccc(-c2ccc3nc(-c4ccc(Cl)cc4)c(CN4CCN(C(=O)COCc5ccccc5)CC4)n3c2)c1 | -4% | 0.58
56 | O=C1N[C@@H](C2CC2)C(=O)N1c1cccc2ccccc12 | 3% | -0.35
57 | CCC1(C(=O)N2CCO[C@@H](CNC(C)=O)C2)CCCCC1 | 27% | -3.93
58 | CN(Cc1ccccc1)C(=O)C(F)(F)C(F)(F)C(F)(F)C(F)(F)F | 5% | -0.6
59 | N#Cc1ccccc1C(=O)NCC1(Cn2cccn2)CC1 | -6% | 1.03
60 | CC(C)c1nc(CNC(C)(C)C(=O)O)cs1 | 5% | -0.61
61 | COc1cc(C)c(CN2CCOc3c(O)cc(-c4cccs4)cc3C2)cc1C | -10% | 1.96
62 | CCOc1ccc(C(=O)N[C@H]2CCN(Cc3csc(C)n3)C[C@@H]2O)cc1 | -6% | 0.98
63 | CC(C)Cn1nc2n(c1=O)CC1CCC(C2)N1C(=O)c1cccnc1 (stereo not drawn) | -16% | 2.17

Row | Structure (SMILES) | % Inhibition | Z score
64 | CCOC(=O)c1ccc(NC(=O)CN2C(=O)CCn3nc(-c4cn(C)c5ccccc45)cc32)cc1 | 1% | -0.24
65 | Cn1cnn(CC(=O)N2CCCc3ccc(Cl)c(Cl)c32)c1=O | -8% | 0.68
66 | CCN1CCN(C(=O)[C@@]2(CCOC)CCN(C(=O)OC(C)(C)C)C2)CC1 | -6% | 0.67
67 | CCCCc1c(C)nn(-c2nc(C)c(C(=O)N3CCOCC3)s2)c1C | -22% | 1.98
68 | CCOC(C)(C)C(=O)N1CC[C@H](CC(=O)NC)C1 | -2% | 0.34
69 | Cc1nn(C)cc1S(=O)(=O)n1c(=O)cc(C(F)(F)F)c2cn(CC(C)C)nc21 | 28% | -3.11
70 | CN(C)C1(CNCc2cccc3nonc23)CCCCC1 | -2% | 0.33
71 | Cn1cc([C@@H]2CCCN2Cc2nc(-c3ccsc3)no2)cn1 | -8% | 1.07
72 | CC1=C(C(=O)N2CCN(C)CC2)[C@H](c2ccccc2C)n2ncnc2N1 | 37% | -4.14
73 | Cc1cc(CNCc2cccnc2)c(C)n1-c1ccc(Cl)cc1 | -5% | 0.55
74 | Cc1cnc(C(C)CNC(=O)NC2CCN(C3CCCC3)C2)s1 (stereo not drawn) | 1% | -0.05
75 | CC(O)CCN(C)C(=O)NC(C)Cc1ccsc1 (stereo not drawn) | -16% | 1.6
76 | CC(C)Oc1cc(C(=O)N[C@@H]2CCCC[C@H]2S(C)(=O)=O)ccn1 | 1% | -0.13
77 | C[C@H](NC(=O)[C@H]1CC[C@H](CNS(=O)(=O)c2ccccc2)CC1)C(=O)NCC1CCCO1 (stereo partly drawn) | 8% | -0.96
78 | Cc1cc(NC(=O)c2ccc(Cl)c(Cl)c2)nn1-c1ccc(F)cc1F | -3% | 0.31
79 | O=C(Cn1ncc(=O)c2ccccc21)NCCC1CC2CCC1C2 (stereo not drawn) | -7% | 0.74
80 | Cc1cc(C(=O)NCCn2ccnc2)no1 | -16% | 1.61
81 | Cc1cccc(NC(=O)CN(C[C@H]2CCCO2)C(=O)c2ccsc2)c1C | 2% | -0.31
82 | O=C(c1ccccc1F)N1C[C@@H]2CN(CC3CCC3)C[C@]2(C(=O)O)C1 | -2% | 0.38
83 | Cc1cnc(CNc2cccc(CS(=O)(=O)c3ccccc3)c2)o1 | -4% | 0.35
84 | CC(C)c1ccc(O[C@@H](C)CNC(=O)N2CCN(c3nncn3C)CC2)cc1 | 0% | -0.03
